The list shows a part of the results. Cut-off read from the data, not from the text of the source: active = 3.2 or more and inactive = the rest. Most of these values are background signal.
B1: DDX5_Y535_G533A_YF (peptide)
chain: TQNAVYSAANF
B2: CYTH1_Y382 (peptide)
chain: SRDPFYEMLAA
B3: DDR2_Y741_YF (peptide)
chain: FSGDFYRIQGR
B4: CYP3A4_Y432_I431T_YF (peptide)
chain: IDPFTYTPFGS
B5: CYP3A7_Y75 (peptide)
chain: KVWGIYDCQQP
B6: DCX_Y125 (peptide)
chain: EEGESYVCSSD
B7: DES_Y324 (peptide)
chain: QEMMEYRHQIQ
B8: DCX_Y105_YF (peptide)
chain: GVRFIYTIDGS
B9: DCX_Y70_G67E (peptide)
chain: FKEIVYAVSSD
B10: DEGS1_Y284_YF (peptide)
chain: IAAEFYDNLPH
B11: DDR1_Y513_R514C (peptide)
chain: LSNPAYCLLLA
B12: DES_Y363_A360P (peptide)
chain: SEPSGYQDNIA
B13: DCTN4_Y263_Y263C (peptide)
chain: CASQLCPRHKH
B14: DCX_Y64 (peptide)
chain: RNGDRYFKGIV
B15: DDR2_Y740_Y740C_YF (peptide)
chain: LFSGDCFRIQG
B16: DARS1_Y253 (peptide)
chain: QSPQLYKQMCI
B17: DCX_Y103_R102S_YF (peptide)
chain: PQGVSYIFTID
B18: DCLK2_Y124_G119C (peptide)
chain: CVRTIYTIDGS
B19: DES_Y331_H326R (peptide)
chain: RQIQSYTCEID

Target: SHP2 C-SH2 domain E139D
Assay: enrichment score (SH2-bound / input frequency) (ratio); bacterial display of known human phosphotyrosine sites (pTyr-Var adds point mutants) read by sequencing; higher = stronger binding; tyrosines were phosphorylated by kinases first
Settings: peptide library: pTyr-Var
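Note: displayed peptides selected on beads carrying the immobilized SH2 domain, with library peptides lacking any tyrosine serving as negative controls.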

Binder | enrichment score
B1 | inactive: 0.894
B2 | inactive: 0.855
B3 | inactive: 0.585
B4 | inactive: 1.08
B5 | inactive: 1.16
B6 | inactive: 0.457
B7 | inactive: 0.776
B8 | inactive: 1.01
B9 | inactive: 1.43
B10 | inactive: 0.7
B11 | inactive: 0.756
B12 | inactive: 0.601
B13 | inactive: 2.36
B14 | inactive: 0.819
B15 | inactive: 1.13
B16 | inactive: 0.652
B17 | inactive: 0.97
B18 | inactive: 0.743
B19 | inactive: 1.02

Target: SHP2 C-SH2 domain wild-type
Assay: as above
Settings: peptide library: pTyr-Var

Binder | enrichment score
B1 | inactive: 0.868
B2 | inactive: 0.658
B3 | inactive: 0.454
B4 | inactive: 0.648
B5 | inactive: 1.14
B6 | inactive: 0.721
B7 | inactive: 0.706
B8 | inactive: 1.31
B9 | inactive: 0.938
B10 | inactive: 0.707
B11 | inactive: 0.784
B12 | inactive: 0.524
B13 | active: 3.23
B14 | inactive: 0.745
B15 | inactive: 1.12
B16 | inactive: 0.712
B17 | inactive: 1.11
B18 | inactive: 0.938
B19 | inactive: 0.583

Target: SHP2 N-SH2 domain L43F
Assay: as above
Settings: peptide library: pTyr-Var

Binder | enrichment score
B1 | inactive: 0.862
B2 | inactive: 0.747
B3 | inactive: 0.512
B4 | inactive: 0.842
B5 | inactive: 1.14
B6 | inactive: 0.58
B7 | inactive: 0.823
B8 | inactive: 1.26
B9 | inactive: 1.17
B10 | inactive: 0.882
B11 | inactive: 0.722
B12 | inactive: 0.582
B13 | inactive: 2.49
B14 | inactive: 0.65
B15 | inactive: 1.02
B16 | inactive: 0.504
B17 | inactive: 0.903
B18 | inactive: 0.838
B19 | inactive: 0.743

Target: SHP2 N-SH2 domain T42A
Assay: as above
Settings: peptide library: pTyr-Var

Binder | enrichment score
B1 | inactive: 0.649
B2 | inactive: 0.689
B3 | inactive: 0.533
B4 | inactive: 0.851
B5 | inactive: 1.2
B6 | inactive: 0.522
B7 | inactive: 0.608
B8 | inactive: 1.08
B9 | inactive: 1.02
B10 | inactive: 0.657
B11 | inactive: 0.581
B12 | inactive: 0.554
B13 | inactive: 2.22
B14 | inactive: 0.7
B15 | inactive: 0.927
B16 | inactive: 0.612
B17 | inactive: 1.5
B18 | inactive: 0.616
B19 | inactive: 0.559

Target: SHP2 N-SH2 domain T52S
Assay: as above
Settings: peptide library: pTyr-Var

Binder | enrichment score
B1 | inactive: 0.811
B2 | inactive: 0.798
B3 | inactive: 0.539
B4 | inactive: 0.886
B5 | inactive: 1.04
B6 | inactive: 0.54
B7 | inactive: 0.611
B8 | inactive: 1.18
B9 | inactive: 1.46
B10 | inactive: 0.889
B11 | inactive: 0.627
B12 | inactive: 0.437
B13 | inactive: 2.5
B14 | inactive: 0.665
B15 | inactive: 1.07
B16 | inactive: 0.473
B17 | inactive: 1.03
B18 | inactive: 0.683
B19 | inactive: 1.03

Target: SHP2 N-SH2 domain wild-type
Assay: as above
Settings: peptide library: pTyr-Var

Binder | enrichment score
B1 | inactive: 0.753
B2 | inactive: 0.868
B3 | inactive: 0.539
B4 | inactive: 1.03
B5 | inactive: 1.55
B6 | inactive: 0.583
B7 | inactive: 0.97
B8 | inactive: 1.18
B9 | inactive: 1.12
B10 | inactive: 0.787
B11 | inactive: 0.872
B12 | inactive: 0.641
B13 | inactive: 2.12
B14 | inactive: 0.865
B15 | inactive: 1.11
B16 | inactive: 1.02
B17 | inactive: 1.06
B18 | inactive: 0.917
B19 | inactive: 0.998

— the supplement of paper PMC10369915
